According to PubChem BioAssay AID485344 (National Center for Advancing Translational Sciences (NCATS), 2010):
Among all 340,000 compounds or so, about 6,900 (2%) were called active. Rule as the data show it: active = inhibition above about 30%; inactive = below that, where a call was filed. The entries are a selection whose mix differs from that of the whole data set. The source gives no active or inactive call for entries shown without one.

These compounds were tested against D(2) dopamine receptor (Homo sapiens) (UniProt P14416) (assay: HTS Assay for Allosteric Antagonists of the Human D2 Dopamine Receptor: Primary Screen for Antagonists). Conditions: HEK293 TREx D2 cells, calcium flux, dopamine EC80; at 10 µM; stronger effect = higher value.
In short: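 Inhibition of EC80 dopamine-driven calcium flux, recorded kinetically, defines activity here; cells are a tetracycline-induced HEK293 T-REx line expressing force-coupled D2.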
Also: 0% is about no effect.

Chain of UniProt P14416 (P14416 whole entry, looked up): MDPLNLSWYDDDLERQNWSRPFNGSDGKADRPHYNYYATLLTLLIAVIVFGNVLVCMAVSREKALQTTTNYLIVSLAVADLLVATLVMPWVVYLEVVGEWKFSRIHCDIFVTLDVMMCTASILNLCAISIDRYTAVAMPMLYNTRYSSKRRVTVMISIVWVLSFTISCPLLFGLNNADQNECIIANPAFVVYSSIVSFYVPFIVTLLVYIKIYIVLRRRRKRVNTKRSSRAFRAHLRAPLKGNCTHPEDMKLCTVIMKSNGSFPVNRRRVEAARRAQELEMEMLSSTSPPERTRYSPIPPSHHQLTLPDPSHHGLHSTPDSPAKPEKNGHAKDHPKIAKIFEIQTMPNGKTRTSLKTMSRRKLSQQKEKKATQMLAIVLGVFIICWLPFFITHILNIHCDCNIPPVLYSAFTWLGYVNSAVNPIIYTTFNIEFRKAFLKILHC

SMILES	inhibition
CC(=O)Oc1ccccc1C(=O)Nc1ncc([N+](=O)[O-])s1	active: 35%
CCOC(=O)c1ccc(NC(=O)CSc2nc3ncc(Br)c(C)c3[nH]2)cc1	4.39%
COCCCNC(=O)c1ccc(Cn2c(=O)c3ccccc3n(CC(N)=O)c2=O)cc1	-4.72%
CCC(=O)N1c2ccccc2CC1C(=O)NCCCN1CCN(c2cc(C)ccc2C)CC1 (stereo not drawn)	-6.52%
COc1ccc(-c2cc3nc(N)cc(=O)n3[nH]2)cc1	0.311%
CCN(C(=O)c1ccc2c(c1)N(Cc1cccc(Cl)c1)C(=O)c1ccccc1S2=O)c1ccccc1 (stereo not drawn)	18.2%
Cc1cc(C)c(NC(=O)Cn2c(=O)n(-c3cccc(C(F)(F)F)c3)c(=O)c3c(C)c(C)sc32)c(C)c1	10.1%
O=C(O)c1ccc(Nc2nc3ccccc3c3nncn23)cc1	8.78%
COc1ccccc1NC(=O)C(Cc1ccccc1)NS(=O)(=O)c1ccc2c(c1)CCN2C(C)=O (stereo not drawn)	6.59%
CC(=O)N1CCOc2cc(S(=O)(=O)NCc3ccccc3Cl)c(C)cc21	-5.91%
CCc1ccccc1Nc1nn2c(=O)c3ccc(C(=O)NCc4ccc(C)cc4)cc3nc2s1	-1.49%
Cc1ccc(NC(=O)c2noc(C(C)C)c2[N+](=O)[O-])cc1	active: 50.8%
CC(=O)N1CCc2c(sc3c2c(=O)n(-c2ccccc2)c(=O)n3CC(=O)c2ccc(Cl)cc2)C1	-5.07%
O=C(NCc1cccc(F)c1)C1CCN(c2nc3ccccc3nc2C(F)(F)F)CC1	1.43%
O=C(NCCN1CCOCC1)c1cccc(NS(=O)(=O)c2ccc(Br)cc2)c1	active: 33.1%
COCCNC(=O)CCn1c(=O)c2cc(OC)c(OC)cc2n(CC(=O)Nc2ccc(F)c(Cl)c2)c1=O	8.94%
O=C(Nc1ccc(Cl)cc1Cl)c1cc(S(=O)(=O)N2CCC3(CC2)OCCO3)ccc1F	14.8%
CCN(CCCNC(=O)CSc1cc(=O)n(C)c2ccccc12)c1ccccc1	2.93%
CCOc1cccc(NC(=O)C2CC(=O)N(C)C(=Nc3cccc(OC)c3)S2)c1 (stereo not drawn)	1.12%
Cc1cc(C)c(NC(=O)C(C)n2c(=O)cc(C)c3c(C)nn(-c4ccccc4)c32)c(C)c1 (stereo not drawn)	-12.5%
Cc1[nH]c2ccccc2c1CCNS(=O)(=O)c1ccc(S(N)(=O)=O)cc1	active: 54.8%
COc1ccc([N+](=O)[O-])cc1NC(=O)C(C)c1ccccc1 (stereo not drawn)	active: 32.2%
O=C(NC1CCCCCC1)C1CCN(C(=O)N2CCOc3ccc(Cl)cc32)CC1	8.1%
Cc1ccc(S(=O)(=O)N2[C@@H](c3ccc(Cl)cc3)C(C(=O)O)=CC[C@H]2c2ccc(C(C)C)cc2)cc1	active: 38.9%

SMILES	inhibition
Cc1ccc(C2=NN(CC(=O)NCCCN(CC(C)C)CC(C)C)C(=O)CC2)cc1	-24.1%
CCCCc1nn2c(=O)cc(COC(=O)c3cccc(NC(=O)COc4ccccc4)c3)nc2s1	-13.7%
CCOCCCNC(=O)c1ccc2c(c1)NC(=O)C(CS(=O)(=O)Cc1ccc(F)cc1Cl)N2 (stereo not drawn)	-4.49%
Cc1cc2[nH]c(=O)c(=O)[nH]c2cc1S(=O)(=O)NCc1ccc(F)cc1	10.1%
Cc1cc(C)n(-c2nc3ccccc3nc2Nc2ccc(C(C)C)cc2)n1	-3.44%
CCOC(=O)Cc1ccc(NC(=O)Nc2ccccc2OCc2cc(=O)n3ccccc3n2)cc1	19.8%
O=C(NCc1ccc2c(c1)CCN2C(=O)c1ccccc1)Nc1cc(F)ccc1F	-10.4%
COc1ccccc1-n1c(=O)c2c3c(sc2n(C)c1=O)CN(C(C)=O)CC3	-8.86%
COc1ccc(Cn2c(CNS(=O)(=O)c3ccc(C)c(C)c3)nc3cccnc32)cc1	16.9%
CCN1CCN(c2ncnc3c2cnn3-c2ccc(C)c(Cl)c2)CC1	-1.03%
CC(Oc1ccc(F)cc1)C(=O)Nc1nc(-c2ccc(F)cc2)ns1 (stereo not drawn)	27.6%
COc1ccc(C)cc1S(=O)(=O)NCC(c1cccs1)S(=O)(=O)c1ccc(C)cc1 (stereo not drawn)	-4.29%
COC(=O)c1ccc(NC(=O)CCc2c(C)nc3c(-c4ccccc4)c(C)nn3c2C)cc1	5.14%
CCn1c(CNC(=O)c2ccc(OC)cc2)nnc1SCC(=O)Nc1ccccc1	-1.55%
CCOC(=O)c1ccc(OCC2c3cc(OC)c(OC)cc3CCN2C(=O)c2ccc(S(=O)(=O)N3CCCC3)cc2)cc1 (stereo not drawn)	11.5%
COc1ccc(-n2c(C)c(C(C)=O)c3cc(OC(=O)c4ccc(C)cc4)ccc32)cc1	-20.8%
CN1CCN(CCOC2Cc3ccccc3Sc3ccc(Cl)cc32)CC1 (stereo not drawn)	active: 87.9%
Cc1ccc(CCNC(=O)c2cn(C)c3ccc(S(=O)(=O)N(C)C4CCCCC4)cc3c2=O)cc1	14.8%
CCC1=Nc2cc(C(=O)NCC(C)c3ccccc3)ccc2Sc2ccc(C)cc21 (stereo not drawn)	10.2%
COc1ccc(CNS(=O)(=O)c2cc3c(cc2C)N(C)CCO3)cc1	-1.4%
Cc1ccc(Cn2cc(C(=O)c3ccc(F)cc3)c(=O)c3cc4c(cc32)OCO4)cc1	-5.56%
Cc1cccc(NC(=O)c2cc(S(=O)(=O)NCc3ccc4c(c3)OCO4)ccc2F)c1C	-1.49%
CN(C)CCCN1c2ccccc2Sc2ccc(C(F)(F)F)cc21	active: 94.9%
CCOC(=O)Cn1c(=O)n(CC2CCCO2)c2nc(-c3ccccc3F)nc(C(N)=O)c21 (stereo not drawn)	-14.2%

SMILES	inhibition
CCN(c1ccc(C)cc1)S(=O)(=O)c1nnc(NC(=O)C2CCCCC2)s1	-2.92%
Cc1ccc(OCC(=O)NCC(c2ccc(Cl)cc2)N2CCCCC2)cc1 (stereo not drawn)	21.2%
Cc1ccc(C)c(CN2C(=O)c3ccccc3S(=O)(=O)c3ccc(C(=O)N4CCc5ccccc54)cc32)c1	1.23%
CCCNC(=O)CSc1nc2ccccc2nc1Cc1ccc(Cl)cc1	-9.77%
COc1ccc(NC(=O)N2CCc3c(sc4c3CCCC4)C2c2ccccc2OC)cc1 (stereo not drawn)	2.69%
CC(C)CC(=O)Nc1ccc2nc(SCC(=O)N3CCCC3)sc2c1	-12.1%
CCOc1ccc(N(CC(=O)Nc2cc(C)ccc2C)S(=O)(=O)c2c(C)[nH]c(=O)[nH]c2=O)cc1	-12%
Cc1ccc(NC(=O)CCn2nc(C)c(S(=O)(=O)N3CCCCC3)c2C)cc1Cl	-5.78%
OCC1(Cc2ccc(Cl)cc2)CCN(CCCc2ccccc2)CC1	active: 69.1%
CCOC(=O)c1c(C)sc(-c2c(-c3cc(C)ccc3C)[nH]c3c2c(=O)n(C)c(=O)n3C)c1O	-5.94%
O=C(Nc1cccc(Cl)c1Cl)c1cc2nc(-c3ccc(Cl)cc3)cc(C(F)(F)F)n2n1	-7.35%
Cc1ccc(CN2C(=O)CN(C3CCC(C)CC3)C(=O)C2c2ccc(F)cc2)cc1 (stereo not drawn)	-15.3%
COc1ccc(Cn2c(=O)n(-c3ccccc3C)c(=O)c3c4c(sc32)CN(C(C)=O)CC4)cc1	9.39%
CCCN(CCC)CCNC(=O)c1cc2c(-c3ccc(Cl)cc3)nn(C)c2s1	active: 37%
COc1cc(-c2noc(CN3CCN(c4cccc(Cl)c4)CC3)n2)cc(OC)c1OC	-16.4%
CSc1cccc(NC(=O)CC(c2cccs2)N2Cc3ccccc3C2=O)c1 (stereo not drawn)	-1.13%
Cc1ccc(NC(=O)CSc2n[nH]c(-c3ccc(F)cc3)n2)cc1F	-6.05%
CCOc1ccccc1NC(=O)N1CCN(C)c2ncccc21	-13.1%
CSc1ccc(CCNC(=O)CCc2c(C)nc3c(c(C)nn3-c3ccc(C)c(C)c3)c2C)cc1	1.93%
COc1ccc2nc(NC(=O)c3nc(S(=O)(=O)Cc4ccccc4)ncc3Cl)sc2c1	11%
CCN(CC)CCNC(=O)c1cc(-c2ccc(Br)s2)nc2ccccc12	-8.1%
CCc1nn(CC(=O)Nc2cc(C)cc(C)c2)c(=O)c2cc3sccc3n12	0.995%
Cc1ccc(CN2CCCn3nc(C(=O)NCc4ccc(OC(C)C)cc4)cc3C2=O)cc1	9.44%
C=CCn1c(=O)c(C#N)cc2c(=O)n3ccccc3nc21	active: 57.8%

SMILES	inhibition
CCN(CC)CCNC(=O)C1CCN(c2cc(C)nc3c(-c4ccc(Cl)cc4)c(C)nn23)CC1	16.3%
Cc1ccc(NC(=O)CSc2nc(=O)n(CCCN3CCOCC3)c3c2CCCC3)cc1F	active: 31.1%
O=C(Cn1nc(-c2ccccc2)nc(Cc2ccccc2)c1=O)Nc1ccccc1	2.3%
CCCCC(=O)OC1=C(C(C)=O)N(Cc2ccccc2)S(=O)(=O)c2ccccc21	9.27%
Cc1ccc(C)c(CSc2ccc3nnc(CCNS(=O)(=O)c4ccccc4)n3n2)c1	3.37%
Cc1ccn2c(Nc3ccc(F)cc3)c(-c3ccccn3)nc2c1	21.5%
COc1ccc(OC)c(Nc2ncnc3c2cnn3-c2cccc(Cl)c2)c1	-21.3%
COCCNC(=O)CSc1cn(CC(=O)N2CCCCCC2)c2ccccc12	6.06%
CCCCS(=O)(=O)CC(COc1ccccc1)OC(=O)c1ccccc1 (stereo not drawn)	active: 34.9%
CSc1ccc(CCNC(=O)Cn2ncc3c(=O)oc4ccccc4c32)cc1	11.9%
Cc1ccc(NC(=O)C2CCCN2S(=O)(=O)c2ccc3nc(-c4ccccc4)[nH]c3c2)cc1F (stereo not drawn)	4.24%
CCOc1ccc(OCC)c(NC(=O)C2CCN(S(=O)(=O)c3cn(C)cn3)CC2)c1	8.2%
CCCC(=O)N1CC(=O)Nc2ccc(Cl)cc2C1c1ccccc1 (stereo not drawn)	4.07%
Cc1ccc(N2C(=O)NC(NS(=O)(=O)c3ccc(Cl)cc3)(C(F)(F)F)C2=O)cc1C (stereo not drawn)	14.2%
O=C(c1ccco1)n1nc(-c2ccc(Cl)cc2)nc1NCc1ccccc1	-1.15%
COc1ccc(S(=O)(=O)N2CCC(c3ccncc3)CC2)cc1OC	16.8%
CCc1ccc(NC(=O)Cn2c(=O)n(Cc3nc(-c4ccccc4)no3)c(=O)c3cc4c(cc32)OCO4)cc1	-1.63%
Cc1cccc(C(=O)Nc2ccc(C(=O)OCc3cc(=O)n4nc(C5CC5)sc4n3)cc2)c1	-8.75%
COc1ccc(S(=O)(=O)NCC(c2ccc(N(C)C)cc2)N2CCc3ccccc32)cc1 (stereo not drawn)	-10.7%
CCOc1cc(C2C(C(=O)Nc3ccc(OC)cc3)=C(C)Nc3nc(SC)nn32)ccc1O (stereo not drawn)	21.4%
Cc1ccc2c(=O)cc(C(=O)Nc3ccc(S(=O)(=O)Nc4nc(C)cc(C)n4)cc3)oc2c1	-2.85%
